Laboratory results from paper PMC4336329 (PLoS ONE, 2015).
Out of some 310,000 compounds screened, about 14,000 (4.5%) showed an effect of 50% or more. The effect is printed as a negative number. The list shows a part of the results.

Target: human ether-à-go-go-related gene (hERG) potassium channel (human, UniProt Q12809)
Test: primary screen, population patch clamp on CHO cells stably expressing hERG
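Also: peak tail current of the secondary pulse compared with the same well before compound.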

human ether-à-go-go-related gene (hERG) potassium channel, sequence (Q12809 whole entry, looked up): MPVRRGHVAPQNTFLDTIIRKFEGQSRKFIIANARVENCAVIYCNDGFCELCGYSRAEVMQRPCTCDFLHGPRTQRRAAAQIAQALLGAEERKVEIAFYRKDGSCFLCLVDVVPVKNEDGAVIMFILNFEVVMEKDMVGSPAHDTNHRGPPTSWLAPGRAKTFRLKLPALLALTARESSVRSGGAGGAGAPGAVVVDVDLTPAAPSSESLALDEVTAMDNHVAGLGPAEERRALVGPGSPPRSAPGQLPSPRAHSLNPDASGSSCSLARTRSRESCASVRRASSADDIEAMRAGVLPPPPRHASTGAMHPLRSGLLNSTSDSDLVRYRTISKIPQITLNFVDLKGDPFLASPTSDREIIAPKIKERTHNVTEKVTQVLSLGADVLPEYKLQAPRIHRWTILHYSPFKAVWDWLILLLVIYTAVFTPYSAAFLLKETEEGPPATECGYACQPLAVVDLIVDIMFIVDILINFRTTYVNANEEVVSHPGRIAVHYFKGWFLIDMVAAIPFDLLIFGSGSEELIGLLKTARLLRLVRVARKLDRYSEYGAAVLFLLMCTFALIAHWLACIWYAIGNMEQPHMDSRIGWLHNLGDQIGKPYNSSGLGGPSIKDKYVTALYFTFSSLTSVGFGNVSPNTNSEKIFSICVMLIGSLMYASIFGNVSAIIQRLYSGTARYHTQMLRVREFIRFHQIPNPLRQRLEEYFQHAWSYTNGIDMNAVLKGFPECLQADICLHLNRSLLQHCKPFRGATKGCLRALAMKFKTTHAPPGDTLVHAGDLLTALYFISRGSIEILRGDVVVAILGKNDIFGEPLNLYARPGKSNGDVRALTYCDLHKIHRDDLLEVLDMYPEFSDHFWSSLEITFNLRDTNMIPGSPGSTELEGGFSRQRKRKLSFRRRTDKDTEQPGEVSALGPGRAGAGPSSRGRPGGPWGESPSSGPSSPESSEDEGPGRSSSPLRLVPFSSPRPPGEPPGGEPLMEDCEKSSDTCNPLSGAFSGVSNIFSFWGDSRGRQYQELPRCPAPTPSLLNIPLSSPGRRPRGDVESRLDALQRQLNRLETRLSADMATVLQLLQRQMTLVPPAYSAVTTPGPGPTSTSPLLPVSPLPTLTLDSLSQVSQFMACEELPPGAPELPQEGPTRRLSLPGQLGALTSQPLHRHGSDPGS

SMILES	hERG current change (%, negative = inhibition) at 10uM [%]
O=C(NCc1ccc(Cl)cc1)C(=O)NCC1OCCN1S(=O)(=O)c1cc(F)ccc1F (stereo not shown)	0.656
COc1ccc2oc(C(=O)OCC(=O)NC(C)c3ccccc3)c(C)c2c1 (stereo not shown)	-24.7
Clc1ccc2c(c1)Nc1ccccc1CC2	-1.79
O=C(CSc1ccc2c(c1)OCCO2)NCCN1C(=O)CSC1=O	5.59
Cc1noc(NS(=O)(=O)c2ccc(NC(=O)C(CC(C)C)N3C(=O)c4ccccc4C3=O)cc2)c1C (stereo not shown)	5.57
Cc1ccc(OCC(=O)c2cc(C)n(C)c2C)c([N+](=O)[O-])n1	-19.1
Cc1ccc(S(=O)(=O)N(C)c2ccc(OCC(=O)Nc3nc4ccccc4s3)cc2)cc1	17.8
Cn1c(=O)n(CCCOc2ccc(Br)cc2)c2ccccc21	-3.96
CCN(CC)c1nc(-c2ccccc2)nc2ccccc12.Cl	-32.5
Br.N=C1c2ccccc2CN1NC(=O)c1cccc(S(=O)(=O)N2CCCC2)c1	12.6
O=C(Nc1ccc(Oc2cccnc2)cc1)C1CCCCN1Cc1ccc(CO)o1 (stereo not shown)	1.59
O=C(O)c1cccnc1Sc1ccc(Br)cc1	-24.5
COc1ccc(CNCC(O)(c2ccccc2)c2ccccc2)cc1OC	-60
COc1ccc(NC(=O)CSc2nc(N)c3cc4c(nc3n2)CCCC4)cc1	-15.7
COCCCN(Cc1ccccn1)S(=O)(=O)Cc1ccccc1	4.48
COc1ccc(/C=N/NC(=O)Cn2cnc3c2c(=O)n(C)c(=O)n3C)c(OC)c1OC	10.6
O=S(=O)(NCc1ccccc1)[C@@H]1CC2C=CC1C2 (stereo partly shown)	1.81
COc1ccc(OC)c2c(C)cc(N3CCCCCC3)nc12	-12.5
CCN(CC)C(=O)CN(c1cccc([N+](=O)[O-])c1)S(=O)(=O)c1ccccc1	-26.2
CC1CN(C(=O)c2cc3cc(Cl)cc(Cl)c3oc2=O)CC(C)O1 (stereo not shown)	-6.75
CCNc1ccc(S(=O)(=O)N(C)C)cc1NCC(=O)Nc1ccc(Br)cc1F	-33.3
Cc1cc(NC(=O)CSc2nnc(C)n2-c2ccccc2)no1	39.2

SMILES	hERG current change (%, negative = inhibition) at 10uM [%]
Nc1nc(NCc2ccco2)nc(N2CCCC2)c1[N+](=O)[O-]	-13.5
CCOC(=O)c1c(C)n(C)c2ccc(OC(=O)c3ccc([N+](=O)[O-])cc3)cc12	24.7
Cc1cc2ccccn2c1C(=O)c1ccccc1Br	3.13
O=C(C1=NN[C@@H]2C(=O)N(Cc3ccccc3)C(=O)[C@H]12)c1ccc(F)cc1	7.44
Cc1cc(/C=C(\C#N)C(=O)O)c(C)n1CC(C)C	17.2
COc1cccc(COC(=O)c2sc3nc4n(c(=O)c3c2C)CCC4)c1OC	11
CC(OC(=O)c1cccc(S(=O)(=O)N2CCCC2)c1)C(=O)NC1CCCCC1C (stereo not shown)	-7.21
CCCc1nc2ccc(NC(=O)c3ccco3)cc2c(=O)n1Cc1ccc(Cl)cc1	-5.77
CCCCCCCNC(=O)C1(CC2CC(c3cccc(Br)c3)=NO2)CCNCC1 (stereo not shown)	-70.3
CCOC(=O)Cn1c(=O)oc2cc(S(=O)(=O)N3CCn4c3nc3ccccc34)ccc21	-56.3
O=C(O)C1Cc2[nH]cnc2C(c2cccc([N+](=O)[O-])c2)N1 (stereo not shown)	17.4
C1CCCCCC2(CCCCC1)OCC(CN1CCOCC1)O2 (stereo not shown)	-20.5
Cc1ccc2c(c1)N(CC(=O)NCc1ccco1)C(=O)C(C(C)C)O2 (stereo not shown)	-0.337
CCOC(=O)c1c(C)oc2c1cc(O)c1ccccc12	2.35
CC12CC3CC(C)(C1)CC(Nc1nc(N4CCOCC4)nc4ccccc14)(C3)C2	11.9
C=CCNC(=O)c1onc(CSc2ccc(Cl)cc2)c1C(=O)NCC=C	-36.6
CCN(CC)c1ccc(NC(=O)C2=CC=CN3CCS(=O)(=O)N=C23)cc1	-2.98
CC(C)(C)c1ccc(OCc2ccc(C(=O)NCc3cccnc3)o2)cc1	-10.2
CC1CCCCN1C(=O)c1cc(F)c(F)cc1Cl (stereo not shown)	3.93
O=C(Nc1ccc(Cl)c(S(=O)(=O)N2CCOCC2)c1)c1ccc2c(c1)OCCO2	12.6
C/C(=N\Nc1c(Cl)c(Cl)nc(C(=O)O)c1Cl)c1ccc(O)cc1	13.7
O=C(/C(=C/c1cccnc1)n1ccnc1)c1ccc(Cl)cc1Cl	-28.9

SMILES	hERG current change (%, negative = inhibition) at 10uM [%]
Cc1nnc(SCC(=O)Nc2nsc(-c3ccccc3)n2)s1	4.36
Cc1c(C(=O)NC(=S)NCc2cccnc2)cccc1[N+](=O)[O-]	1.11
O=C(O)CCc1ccc(-c2ccc(F)cc2)n1NC(=O)c1ccco1	8.01
O=C(CNC(=O)c1ccc(Cl)cc1)c1ccc(Cl)cc1	7.28
O=C(Nc1ccccc1F)c1ccc2c(c1)OCO2	15.7
CC(NC(=O)c1ccccc1OC(F)F)c1ccc(-n2ccnc2)cc1 (stereo not shown)	-55
CC(CCc1ccccc1)NC(=O)Cc1cccs1 (stereo not shown)	-0.424
Cc1ccc(NC(=O)c2cccc(OC(F)F)c2)c(OC(F)F)c1	-36.2
COc1cc(OC)c(OC)cc1CNc1nnnn1C	-15.9
Cc1c(CC(=O)NCC(=O)O)c(=O)oc2cc3oc4c(c3cc12)CCCC4	24.8
COc1ccccc1N1CCN(CCc2ccccc2)CC1	-59.4
Cc1ccc(S(=O)(=O)N(C)c2ccc(C(=O)Nc3ccccc3C(=O)N3CCOCC3)cc2)cc1	11
CC1Sc2ccc(S(=O)(=O)N3CCC(C(=O)N(C)Cc4ccccc4)CC3)cc2NC1=O (stereo not shown)	2.13
CCCc1nnc(NC(=O)CCC(=O)N2CCN(C3CCCC3)CC2)s1	1.48
CC(C)(C)c1nn(-c2ccccc2)c2[nH]c(=O)c(CNCc3ccco3)cc12	-26
COc1ccc(-c2noc(C3CCCN(C(=O)Nc4ccccc4F)C3)n2)cc1 (stereo not shown)	-10.2
CCc1ccc(CN2CCC(Oc3ccc(C(=O)N4CCCC4)cc3)CC2)cc1	-81.3
CCOC(C(=O)OCC(O)CN(CC)CC)(c1ccccc1)c1ccccc1.Cl (stereo not shown)	-5.25
O=C(CN1CCC(NC(=O)c2ccco2)CC1)Nc1ccccc1[N+](=O)[O-]	-23.8
N#Cc1ccccc1NS(=O)(=O)c1cc2c3c(c1)CCC(=O)N3CCC2	7.45
CC(=O)NC1CC2CCCC(C1)N2 (stereo not shown)	13.9
COc1ccc2c(c1)[nH]c1c(=O)n(CCCn3ccnc3)cnc12	-35.1

SMILES	hERG current change (%, negative = inhibition) at 10uM [%]
O=C(NC1CCCC1)C1CCN(c2cnccn2)CC1	26.5
CN(CC(=O)Nc1ccc(N2CCOCC2)cc1)C(=O)CSc1ccccc1F	2.68
FC(F)(F)c1cnc(Oc2ccccc2-c2nnc(-c3ccc(Cl)cc3)o2)c(Cl)c1	-1.52
O=C(c1ccc(Cl)cc1)C1CCCN(Cc2cccc3ncccc23)C1 (stereo not shown)	-52.1
O=C(NCCCCCCCCCNC(=O)C(F)(F)F)C(F)(F)F	-4.99
CSc1ncccc1C(=O)NC1CCCCCCC1	16
O=C(CSc1n[nH]c(-c2cccnc2)n1)Nc1ccc(Br)cc1	-0.858
O=C(CCn1cnc2ccccc2c1=O)Nc1cccc(Cl)c1Cl	35.3
Brc1ccc(C2=CC(c3ccco3)n3ncnc3N2)cc1 (stereo not shown)	-19.5
COc1ccc(C(C)=O)cc1Cn1nc(C)c([N+](=O)[O-])c1C	18.5
Cc1ccc(C(=O)NCCNC(=O)c2cccnc2)cc1	11.6
O=C(NCCN1C(=O)C2C3C=CC(C3)C2C1=O)Nc1ccccc1 (stereo not shown)	-8.29
CC(C)(C)c1ccc(C(=O)N2CCN(c3nc4ccccc4o3)CC2)cc1	5.49
COc1cc([N+](=O)[O-])ccc1NC(=O)COC(=O)CCS(=O)(=O)c1ccc(C)cc1	-24.3
Cc1sc2ncnc(OCC(=O)N3CCN(C(=O)c4ccco4)CC3)c2c1C	-30.8
COc1ccc(NS(=O)(=O)c2cc(NC(=O)/C=C/c3cc(OC)ccc3OC)ccc2N2CCCCC2)cc1	-10.6
Br.CCCCCCCC1CC(CSC(=N)N)OC1=O (stereo not shown)	-44.2
Cc1cccc2c(=O)c(C(=O)NCCc3ccccc3)c[nH]c12	21.9
COC(=O)c1cccc(NC(=O)CN2CCN(c3ccc(OC)cc3)CC2)c1	-17.8
Cc1ccc(C)c(NS(=O)(=O)c2cc(C(=O)NCc3ccccn3)ccc2C)c1	-48.7
Cc1nn(-c2ccc(N3CCOCC3)nn2)c(C)c1CCC(=O)NCc1ccc(F)cc1	3.27
CCn1ncc(C(=O)Nc2cccc(Cl)c2)c1C	-24.1
